{"source": "the supplement of paper PMC12632987", "binders": {"B1": {"name": "traf2_out_18_117_1774 (protein)", "chain": "SEREEIIERLERLAEELGRAASRLGKAVLENWEKLTPEEKSEAMDVLADLSRVRREALELIHRIREEGLPLEEARREAERLEEEARRALERAEAMLKRIE"}, "B2": {"name": "traf2_out_6_156_2392 (protein)", "chain": "TAEAILAETKAKLEELIEKMSKASEEKKIIYINKIAGVVYRALQRLRDAGASLEELEAFAAEVRAHLKEYADKYGLDEDTKNLLLSSINAVFDVALAEAK"}, "B3": {"name": "traf2_out_11_169_790 (protein)", "chain": "EEKERNRKIIDKALELNDEAKKKLKEKALELAKEAGLDVEEVKAIFEKHKNASFSAIAAALIAWFRSKGAEEAAAKLEEFYDELRDERNKKFSAFLKSLE"}, "B4": {"name": "traf2_out_17_162_1535 (protein)", "chain": "SPTEEKLKKLKKELEKLEEKKKELEEKLKKLKELSKEEITDLLVEASELKRKALELAEELEKLAKETGSPEAKKLAEKAKKLAEELQKIANKIYKELEKK"}, "B5": {"name": "traf2_out_17_178_1742 (protein)", "chain": "SKEEILKKISEYADELLDVSRDAAARLRAIAEAEGVLTPELRARLDEVARNSNVYALEEVAREVIARTSRAAEVQALLDETTAKMKELNKKIQEAVEKLE"}, "B6": {"name": "traf2_out_17_178_1713 (protein)", "chain": "SKEEARKEISAATDEMIDLAEAAAARLLEIAEADGSLSPEELAALRRARRLGSARTTLALMRAAIPKSPRAAEVQALLDEFEARYRELSKKIAEALKKYE"}, "B7": {"name": "traf2_out_20_3_2139 (protein)", "chain": "SELQKELEKQKAEALKLLKEAAKLADPETAARLKELAKRLKASKELSVSDQLVEFSEIRREVLELAEEARRAGKEELAALLEAAADALNKAMNILMQILE"}, "B8": {"name": "traf2_out_16_104_1396 (protein)", "chain": "EEEKQKEFEKIIEEAEKIAEELGRLANEIYKMMLKASEEEKKKLSDLLVEASEVRREALEFAVETKEELKKGGDLEKAKKKLEELKKKAKEVKEKAKELK"}, "B9": {"name": "traf2_out_15_48_1362 (protein)", "chain": "STEDLRATARRINDLIDATLDEVAAELRALLPKLPEEVRPLVERAIEVAENHRSINDTIALLDEAIAKVDPELAAKLQALRDRLRATQREASALFNATLK"}, "B10": {"name": "traf2_out_16_104_1427 (protein)", "chain": "GEEKEKRFEEIIKELKEIAERANEIANKAYKLYEKADEEKKEKISDLLVEASELRREALKAAIEAEEKLKEGGDLEEAEKALEELKKRLKEIEKKLKELE"}, "B11": {"name": "traf2_out_17_178_1681 (protein)", "chain": "SKEEERAKISAYTDELIDLTEATGAELLAAARADGRLTPEELAALEAARRRGSNRTFLALAERIAPRLSNAAEAAARLAAFRARARELEKKIAEAYKRYE"}, "B12": {"name": "traf2_out_1_156_894 (protein)", "chain": "SRTDEFYEEQKERFKNPERRELLTRVTDILIEAKEIAEEAKKDPRLEEILKEAERLIEEAKRLYSRILSATEEELPELREEVERLEEELRELKARFEAAK"}, "B13": {"name": "traf2_out_1_158_917 (protein)", "chain": "DTKKNLMLSVIELVGDFEIDSARDNGDEETAKKLEEFSKEVLEKAKELLFKENKSAEEVIEEIKKLAEEKKKEVDEETAKRIDRMTRKIVSGIKQVDKLM"}, "B14": {"name": "traf2_out_19_16_1963 (protein)", "chain": "GREEVEEALKEAKERLKEAEKLLEDVKKNIDKLSRDELMDIIVDASEKKREIQERLRRLKEEHPEEEELLKEVEEEAEKALKVLQKTMNLAVDKYLELLK"}, "B15": {"name": "traf2_out_9_17_2612 (protein)", "chain": "SAEEEKLKEKTLEAIKEVLKELVEKGYITEEEAEEILKKVKELIEKGASVDEIIATFLGDVASILLTKSNLSLSEANKIVGEAYKKLREKLAEIKKELAA"}, "B16": {"name": "traf2_out_16_104_1391 (protein)", "chain": "AAARRAEFEAIAARLEAIAEEAGRIANRLYELYEKADAERKTELSDLLVEASELRRRALEAALAVRAALATGGDLAAARATLEELEAELERIRERARELE"}, "B17": {"name": "traf2_out_17_178_1711 (protein)", "chain": "SKEKAREEISKATDEMIDLAEEAAARLLEIAEREGSLSPEELAALRRARRLGSARTTLALMERAIPRSASAEEVQALLDEFKAEYRKLSKKIAEALKKYE"}, "B18": {"name": "traf2_out_3_89_2299 (protein)", "chain": "MEEEERKIEEARERAERYAEGFRKSLTFVAKQMIKDGMSLETLKGVAEAARDALVEVFRERLKELGLSEETIEELVKELREKLEKIVEEIIAEAEAKRKA"}, "B19": {"name": "traf2_out_11_104_651 (protein)", "chain": "LTREQAREFNDFAMEQRDRAHAIGAAVAATLAAAGHTAEAAAVTAALNDPGAGISTLRNLLEELRPRLDPASQAVADAAIAELRALQQEASDKLNELEAE"}}, "note": "Whole data set: some 1,800 sequences, median “median log2 fold change of GCK-ALFA target abundance (FLAG IP / Myc IP barcode read proportion)” near 0.14, cut for the lowest 2% near -0.84. This is one part of the list.", "data": [{"molecular_target": "T1, TRAF2, Q12933", "T1 chain": "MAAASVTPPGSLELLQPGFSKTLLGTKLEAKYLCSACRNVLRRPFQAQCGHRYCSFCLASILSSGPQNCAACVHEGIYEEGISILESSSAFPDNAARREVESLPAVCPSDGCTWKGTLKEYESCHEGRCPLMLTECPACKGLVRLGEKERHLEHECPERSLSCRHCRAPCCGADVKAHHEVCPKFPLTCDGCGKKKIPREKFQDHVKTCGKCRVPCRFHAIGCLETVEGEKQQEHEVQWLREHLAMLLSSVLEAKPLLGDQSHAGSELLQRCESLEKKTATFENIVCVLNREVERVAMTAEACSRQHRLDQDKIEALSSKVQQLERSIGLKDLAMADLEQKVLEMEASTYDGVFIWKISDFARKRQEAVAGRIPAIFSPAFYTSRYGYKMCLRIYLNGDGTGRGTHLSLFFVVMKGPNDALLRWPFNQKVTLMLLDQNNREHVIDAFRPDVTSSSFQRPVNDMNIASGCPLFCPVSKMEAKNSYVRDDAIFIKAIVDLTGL", "experiment": "median log2 fold change of GCK-ALFA target abundance (FLAG IP / Myc IP barcode read proportion) (log2 ratio); each designed protein is fused to an ALFA-tag nanobody in HEK293 cells to bring the named protein to FLAG-tagged glucokinase (GCK); Myc marks an untargeted standard; higher = target protein stabilised (more abundant)", "details": "target protein: 3xFLAG-MCP-GCK-ALFA reporter; HEK293 landing pad (RPLP)", "procedure,_shortened": "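The readout is target abundance, the per-binder median log2 ratio of FLAG to Myc barcode read proportions. It came from HEK293 landing-pad cells carrying a recombined ALFA-nanobody-fused binder library, induced with 2 μg mL^−1 doxycycline and transfected with a plasmid for a FLAG-tagged target and a Myc-tagged standard. After 48 h, lysates were immunoprecipitated with anti-FLAG and anti-Myc, and circular RNA barcodes were reverse transcribed, amplified and sequenced. Each barcode needed a proportion of at least 10^−7 in both replicates and each binder at least 3 barcodes per replicate, a pseudocount of 10^−6 was added, and the replicates were pooled.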", "values": [{"binder": "B1", "median log2 fold change": -0.189}, {"binder": "B2", "median log2 fold change": 0.0835}, {"binder": "B3", "median log2 fold change": -0.562}, {"binder": "B4", "median log2 fold change": -0.0456}, {"binder": "B5", "median log2 fold change": 0.154}, {"binder": "B6", "median log2 fold change": -0.272}, {"binder": "B7", "median log2 fold change": 0.217}, {"binder": "B8", "median log2 fold change": 0.0988}, {"binder": "B9", "median log2 fold change": 0.184}, {"binder": "B10", "median log2 fold change": 0.167}, {"binder": "B11", "median log2 fold change": -0.221}, {"binder": "B12", "median log2 fold change": 0.217}, {"binder": "B13", "median log2 fold change": -0.296}, {"binder": "B14", "median log2 fold change": -0.566}, {"binder": "B15", "median log2 fold change": 0.347}, {"binder": "B16", "median log2 fold change": 0.135}, {"binder": "B17", "median log2 fold change": -0.378}, {"binder": "B18", "median log2 fold change": -0.669}, {"binder": "B19", "median log2 fold change": 0.306}]}]}
